SMILES strings stand for the structures. A number of entries come with more than one value. The other results are left out here.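 How the source made its calls: active means compounds giving half or more protection of infected cells from virus-caused growth loss, again on retest; inactive means the rest.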 An entry can have further records. Values given together are repeated measurements across runs, samples, wells, individuals or studies. Marks in square brackets tell the records apart. Letters hold for one entry only. Where a SMILES comes first, the peptide text is derived from it. The star is where a group is joined. Boc = CC(C)(C)OC(=O)*

The test system of the test is CEM cells HIV-1 protection, formazan growth assay. Description: NCI AIDS Antiviral Assay. As to conditions: for IC50: measured here: growth of uninfected CEM cells. Put shortly:
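Category rules: moderately active means at least 50% protection on retest, and confirmed active means 100% protection reproducibly. The underlying data came from a formazan growth assay in HIV-1-infected CEM cells.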

`COC(=O)C(C)NC(=O)C(CCSC)NC(=O)C(Cc1ccccc1)NC(=O)OC(C)(C)C` (stereo not drawn) (Boc-Phe-Met-Ala-OMe; configuration not given here): the IC50 is 9.77 µM [sample A] and > 200 µM [sample B]. In the case of `CCOC(=O)/C=C/SCCCC(=O)O`, the EC50 was > 1.15 mM [sample A] and 85.1 µM [sample B].

With `Cc1nc(N)nc(N)c1-c1ccc(Cl)c(Cl)c1`, the IC50 is 79.4 nM [sample A] and 1.2 µM [sample B]. In the case of `COc1ccc(-c2nc(SC3OC(COC(C)=O)C(OC(C)=O)C(OC(C)=O)C3OC(C)=O)n(C3OC(COC(C)=O)C(OC(C)=O)C(OC(C)=O)C3OC(C)=O)c(=O)c2C#N)cc1` (stereo not given), the EC50 was > 100 µM [sample A] and 9.55 µM [sample B]. With `CN(C)CC1CCCC(CN2CCCCC2)C1=O` (stereo not given), the outcome was “active [sample A] and inactive [sample B]”.

These data come from PubChem BioAssay AID179 (DTP/NCI, 2004).
